# In PMC7819943, “Rice protein-binding microarrays: a tool to detect cis-acting elements near promoter regions in rice”:
# The other results are listed elsewhere or left out.
# Biological target: T1, OsWOX13 (Oryza sativa, UniProt Q5QMM3 1-267)
# T1 sequence: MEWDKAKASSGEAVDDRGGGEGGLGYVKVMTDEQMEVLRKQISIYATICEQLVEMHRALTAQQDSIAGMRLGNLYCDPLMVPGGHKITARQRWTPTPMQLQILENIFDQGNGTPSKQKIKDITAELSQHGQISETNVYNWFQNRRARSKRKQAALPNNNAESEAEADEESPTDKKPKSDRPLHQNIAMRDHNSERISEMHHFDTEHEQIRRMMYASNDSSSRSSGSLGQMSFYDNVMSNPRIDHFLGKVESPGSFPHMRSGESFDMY
# Assay: protein-binding microarray (RPBM); PBS, 2% BSA, 51.3 ng/ul salmon testes DNA, 50 uM zinc acetate, 200 nM TF, 25 C, 1 h; high values mean tight binding
# Details: protein: recombinant; tags: N-terminal polyhistidine and DsRed monomer fusion (pET32a); label: CyDye5-dUTP incorporated in the synthesized complementary strand; 3' TTTTT single-stranded linker to array surface; dsDNA, one strand shown
# In short: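 A custom Agilent array was converted to double-stranded form by primer extension with Cy5-dUTP and blocked with 2% BSA. Protein at 200 nM in PBS with 2% BSA, salmon testes DNA and 50 µM zinc acetate was applied for 1 h at 25 °C, followed by washing. The proteins were polyhistidine–DsRed N-terminal fusions of transcription factors, expressed in E. coli BL21-CodonPlus and Ni–NTA-purified. The binding signal is per-feature fluorescence intensity (arbitrary units) from an Axon 4000B scanner.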
row,Sequence,binding signal
1,AGATAATTAATGCAAGGGAAATATAGATGATGGTCCATATCGGAGTCACCTAGTGCAG,20300 fluorescence intensity (a.u.)
2,ACTCTTAACCATCAGAAATTTGAATGACTAACAACTACATCGGAGTCACCTAGTGCAG,4410 fluorescence intensity (a.u.)
3,TGAAACTACAATTAATTTTGATCGGAACGATAATTCAATACGGAGTCACCTAGTGCAG,10200 fluorescence intensity (a.u.)
4,GAGGAATAATTGTCGCTCGATTGCTTGCTTGGGTTGGGTTCGGAGTCACCTAGTGCAG,10300 fluorescence intensity (a.u.)
5,CTAAACCGCATAATAATTTACAGAAATGCCCCTCACCTCCCGGAGTCACCTAGTGCAG,11300 fluorescence intensity (a.u.)
6,TTCTGTAAGTATTTACGCTTTATTTACATTTGGATATGTGCGGAGTCACCTAGTGCAG,13400 fluorescence intensity (a.u.)
7,TCTAAATTTATTATAGTACTAGGATATGTCATCTGTTAGTCGGAGTCACCTAGTGCAG,20800 fluorescence intensity (a.u.)
8,TTCTAATCAACATCAACTTCATAAAATTAACATTGCCAAGCGGAGTCACCTAGTGCAG,12100 fluorescence intensity (a.u.)
9,ATGATTAGAGAGAATGGGTTTAGTTATTTGTTGATCCACACGGAGTCACCTAGTGCAG,29400 fluorescence intensity (a.u.)
10,CCACGAGAAAATATATGTGATTGGGCCTTGCACATTACAGCGGAGTCACCTAGTGCAG,10300 fluorescence intensity (a.u.)
11,TAACCCAAATTTTGGACTAATTAAATCGTTGAGTCAACTACGGAGTCACCTAGTGCAG,13700 fluorescence intensity (a.u.)
12,AGCGTGGAAACTCATGATTGCACTTAAAATGGGACGGATGCGGAGTCACCTAGTGCAG,4400 fluorescence intensity (a.u.)
13,ATTTTGATTTTGATTGGTGCAGCCCAAGAATCCCATGTTCCGGAGTCACCTAGTGCAG,46600 fluorescence intensity (a.u.)
14,AAAGTTAATTTACATCTTCATAAAATGGCAAGTAAATTGGCGGAGTCACCTAGTGCAG,32500 fluorescence intensity (a.u.)
15,AGGATGATTTAGAAACTCGACCACAAGAGGGACCTCGAGTCGGAGTCACCTAGTGCAG,7010 fluorescence intensity (a.u.)
16,TTTCATTCTAACATGTTAATTTCTAAGCCTTAATTAACATCGGAGTCACCTAGTGCAG,6780 fluorescence intensity (a.u.)
17,GAAATTAATGTCATGAATTCTCTTCTTCCATGCATGCTGACGGAGTCACCTAGTGCAG,5330 fluorescence intensity (a.u.)
18,ACTTTTGTCAACGGTGGTAATTATTACAGTGTTTTACTCCCGGAGTCACCTAGTGCAG,11100 fluorescence intensity (a.u.)
19,GATGATTTTGTAATTCGATGACAAGTTGAGGGACCTCGGGCGGAGTCACCTAGTGCAG,23200 fluorescence intensity (a.u.)
20,CCTGACAGGCACACGAACCGGACGAGCACTCACCAACCCGCGGAGTCACCTAGTGCAG,19300 fluorescence intensity (a.u.)
21,GAAAGCTCTGATTATCTCCATCTACGGTTCTGCTTCAAGCCGGAGTCACCTAGTGCAG,4050 fluorescence intensity (a.u.)

row,Sequence,binding signal
1,GCACTTTAATTAATCTGGGGACTTCGTTGCTAGCGAGTATCGGAGTCACCTAGTGCAG,11800 fluorescence intensity (a.u.)
2,CCTTTAATTGTTTTCTGAATTTCATACTATAAGGCATATTCGGAGTCACCTAGTGCAG,17600 fluorescence intensity (a.u.)
3,ATTGACTAATTTCGAATGTTGGAATTATTTAATGGTCAGGCGGAGTCACCTAGTGCAG,25900 fluorescence intensity (a.u.)
4,ACAAAAGCAATCAATAATATTTGCCGAACCCTATCGTCCACGGAGTCACCTAGTGCAG,5640 fluorescence intensity (a.u.)
5,AATTTAGTAAATTTCATGGCAAATTGCTACTATCCGAGACCGGAGTCACCTAGTGCAG,4300 fluorescence intensity (a.u.)
6,AATAACGCAATTAATTACGCAAGGTATATATACATACCGCCGGAGTCACCTAGTGCAG,28500 fluorescence intensity (a.u.)
7,ATCTTTCTATACCTATACTAATTAGTCACTTATTCTCAGGCGGAGTCACCTAGTGCAG,5570 fluorescence intensity (a.u.)
8,CTAGATTTGGATCATAATCAGGGCACAGCCGCCTTGGGTCCGGAGTCACCTAGTGCAG,22900 fluorescence intensity (a.u.)
9,GTTTTGATTGAAGTTATTGAAATAATTTGTGTTGAAAAGACGGAGTCACCTAGTGCAG,34600 fluorescence intensity (a.u.)
10,TCGATGACTCAATCATAAGGGATGATAAATAGACTTATTTCGGAGTCACCTAGTGCAG,10900 fluorescence intensity (a.u.)
11,TAAATTAATTAATTAATTAATGCGCTCTTTACCTAACTTTCGGAGTCACCTAGTGCAG,46700 fluorescence intensity (a.u.)
12,ATTAATTTGCCGGGAAAAGACACCTGAACGAACTGTGGGGCGGAGTCACCTAGTGCAG,17000 fluorescence intensity (a.u.)
13,CCCGGTAATGATAGCGTCTGGTTTTAACAAGTCACCGCCGCGGAGTCACCTAGTGCAG,3960 fluorescence intensity (a.u.)
14,TTTTCTTTAAATTTGGTCAAATTTAACAAAGTTTAACTAGCGGAGTCACCTAGTGCAG,8190 fluorescence intensity (a.u.)
15,GTGTTAGATTTTAAATGGATATTTTGGAACACTAGCCCGTCGGAGTCACCTAGTGCAG,5550 fluorescence intensity (a.u.)
16,TTTGACATCATTTTGTATTATAAATCAAATCAAATTTGAACGGAGTCACCTAGTGCAG,10900 fluorescence intensity (a.u.)
17,GGTGTCTTGATTGATATGATTTAAATTATTCTTGGTCTTGCGGAGTCACCTAGTGCAG,58500 fluorescence intensity (a.u.)
18,AAGAAATTATAAATTAAAGATTAGTTTTGAAGACCGTGCCCGGAGTCACCTAGTGCAG,22400 fluorescence intensity (a.u.)
19,CTGAATGATTTGCATACTTCAACTGAAAGGGGCTCAGTCACGGAGTCACCTAGTGCAG,23100 fluorescence intensity (a.u.)
20,TGTATTGCCTAATTAATTTTATGCGCCTTTAATTTACTGCCGGAGTCACCTAGTGCAG,16800 fluorescence intensity (a.u.)
21,ATACAACGATGTGATTAGATCGTAGATTTGATAAGTGGAGCGGAGTCACCTAGTGCAG,16200 fluorescence intensity (a.u.)
